# Experimental data published in paper PMC4336329 (PLoS ONE, 2015).
# Among all 310,000 compounds or so, about 14,000 (4.5%) showed an effect of 50% or more. The effect is printed as a negative number. The list shows a part of the results.
# Biological target: human ether-à-go-go-related gene (hERG) potassium channel (human, UniProt Q12809)
# Assay: primary screen, population patch clamp on CHO cells stably expressing hERG
# 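Further: peak tail current of the secondary pulse compared with the same well before compound.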
# Sequence of human ether-à-go-go-related gene (hERG) potassium channel (Q12809 whole entry, looked up): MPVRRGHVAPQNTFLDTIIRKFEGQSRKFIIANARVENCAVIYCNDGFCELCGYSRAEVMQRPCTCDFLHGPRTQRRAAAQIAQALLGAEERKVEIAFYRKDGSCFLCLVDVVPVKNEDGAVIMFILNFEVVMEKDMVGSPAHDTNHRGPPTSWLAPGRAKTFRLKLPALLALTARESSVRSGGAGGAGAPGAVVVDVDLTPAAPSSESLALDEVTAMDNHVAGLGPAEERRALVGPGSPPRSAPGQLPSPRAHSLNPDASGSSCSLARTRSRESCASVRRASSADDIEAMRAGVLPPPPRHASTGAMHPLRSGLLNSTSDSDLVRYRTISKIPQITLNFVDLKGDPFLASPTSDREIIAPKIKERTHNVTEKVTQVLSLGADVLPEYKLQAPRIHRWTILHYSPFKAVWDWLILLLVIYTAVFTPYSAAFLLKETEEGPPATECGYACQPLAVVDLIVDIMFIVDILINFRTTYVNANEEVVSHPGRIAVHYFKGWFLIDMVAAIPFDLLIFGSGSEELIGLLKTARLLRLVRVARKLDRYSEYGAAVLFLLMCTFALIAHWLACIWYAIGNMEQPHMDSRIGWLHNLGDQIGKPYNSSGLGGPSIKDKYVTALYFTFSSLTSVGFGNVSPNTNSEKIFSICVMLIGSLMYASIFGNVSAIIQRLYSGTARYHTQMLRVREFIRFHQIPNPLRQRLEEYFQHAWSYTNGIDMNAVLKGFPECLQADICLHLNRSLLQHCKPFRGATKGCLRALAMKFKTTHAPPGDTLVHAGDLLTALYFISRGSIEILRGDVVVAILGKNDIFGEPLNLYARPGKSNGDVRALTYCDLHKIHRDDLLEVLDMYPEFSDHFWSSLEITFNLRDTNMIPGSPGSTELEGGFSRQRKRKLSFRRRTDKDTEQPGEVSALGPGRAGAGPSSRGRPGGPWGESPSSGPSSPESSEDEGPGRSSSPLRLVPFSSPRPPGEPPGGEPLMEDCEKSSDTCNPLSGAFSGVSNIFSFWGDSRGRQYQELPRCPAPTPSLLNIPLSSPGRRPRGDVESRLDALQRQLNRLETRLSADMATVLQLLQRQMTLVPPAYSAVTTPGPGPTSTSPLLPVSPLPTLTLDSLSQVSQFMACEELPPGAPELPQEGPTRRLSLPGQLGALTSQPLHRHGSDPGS
row,Compound,"hERG current change (%, negative = inhibition) at 10uM [%]"
1,COc1cccc(/C=N/n2c(-c3ccco3)nc3ccccc3c2=O)c1,-3.1
2,NC(=O)c1nn(Cc2ccccc2)c(=O)c2ccccc12,4.12
3,Cc1noc(C)c1CSCC(=O)Nc1cc(S(C)(=O)=O)ccc1Cl,0.564
4,O=C(COC(=O)c1cc[n+]([O-])cc1)Nc1ccccc1Cl,9.26
5,CN(CCC1CCOCC1)C(=O)c1cc(COc2c(F)cccc2F)on1,-43.6
6,O=C1COc2ccc(C(=O)COC(=O)c3ncc(Cl)c(Cl)c3Cl)cc2N1,36.6
7,O=C(NCC(c1ccco1)N1CCCCC1)c1ccc(COc2ccccc2)cc1 (stereo not drawn),-43.3
8,CCN(C(=O)CSc1nnc2c3ccccc3n(CC)c2n1)C1CCS(=O)(=O)C1 (stereo not drawn),-29
9,O=C(COC(=O)/C=C/c1ccccc1)NNC(=O)c1ccc([N+](=O)[O-])cc1,-24.2
10,CN(C)c1ccc(C(=O)OCC(=O)N2CCCCCC2)cc1,3.85
11,COc1ccc(C2C=C(C)Nc3nc(SC)nn32)cc1 (stereo not drawn),-19.9
12,CCC(C)N1C(=O)c2ccccc2C1C(=O)NC1CCCCCC1 (stereo not drawn),4.45
13,Cc1ccccc1N(C(=O)c1snc(C(N)=O)c1N)C(C)C(=O)NC1CCCCC1 (stereo not drawn),-12.6
14,CC(C)(CNC(=O)C1c2ccccc2-c2ccccc21)N1CCOCC1,-0.52
15,Cc1ccc(NC(=O)Cn2c(C)cc(C)c(C#N)c2=O)c(Cl)c1,14.8
16,Cc1ccc(-n2c(=S)[nH]c3[nH]ncc3c2=O)cc1,-11.8
17,COCCNC(=O)CC(NS(=O)(=O)c1ccc(C)cc1)c1ccco1 (stereo not drawn),13.1
18,C/C(=N\N(C)C)C1=C(O)c2ccccc2C1=O,12.5
19,COc1ccc(CCN(C)C(=O)CCc2nnc(-c3ccccc3)o2)cc1OC,16.6
20,COc1ccc(N(C)S(=O)(=O)c2cccc(C(=O)OCC(=O)NCc3ccccc3OC)c2)cc1,-2.62
21,O=[N+]([O-])c1ccc(CSc2nc3ncc(Br)cc3[nH]2)cc1,6.04
22,Cc1ccc(C)c(N2CCN(C(=O)C(Cc3ccccc3)n3cccc3)CC2)c1 (stereo not drawn),-0.875

row,Compound,"hERG current change (%, negative = inhibition) at 10uM [%]"
1,O=C(NNS(=O)(=O)c1ccc(F)cc1)c1ccc(S(=O)(=O)N2CCCCC2)cc1,-23.2
2,C/C(=C\C(=O)c1ncc(C(F)(F)F)cc1Cl)N(C)C,-3.11
3,ClCc1c2ccccc2cc2ccccc12,-3.93
4,CCOC(=O)c1c(C)[nH]c(C(=O)OCC(=O)N2CCN(S(=O)(=O)c3ccccc3)CC2)c1C,-1.33
5,O=C(CCc1c[nH]c2ccccc12)N[C@@H](Cc1c[nH]c2ccc(O)cc12)C(=O)O,17
6,COc1ccc(NC(=O)c2cc(S(=O)(=O)N3CCCCC3)c[nH]2)cc1,4.58
7,COc1ccc(CCSc2nnc(C3CCCCC3)n2N)cc1,-13.3
8,C[C@H]1O[C@@H](n2cc(F)c(=O)[nH]c2=O)[C@H](O)[C@@H]1O,-7.54
9,CC(C(=O)NCCN1CCOCC1)c1ccc([N+](=O)[O-])cc1 (stereo not drawn),16.7
10,CCOC(=O)Cn1c(=O)n(Cc2ccccc2)c(=O)c2cccnc21,-6.44
11,O=C(c1ccc(F)cc1Cl)N(Cc1ccco1)C1CCS(=O)(=O)C1 (stereo not drawn),5.26
12,Cc1cc(=O)[nH]c(SCC(=O)N(CCC#N)c2ccccc2)c1C#N,15.3
13,O=C(CCCOc1ccccc1)Nc1nnc(C2CCCO2)s1 (stereo not drawn),12.4
14,COC(=O)c1sccc1-c1ccc(C(=O)Nc2cccc(Cl)c2)o1,14.3
15,CC(=O)NC1CCN(CC(=O)Nc2nccs2)CC1,14.9
16,CCOCC(=O)Nc1cc([N+](=O)[O-])ccc1OC,15.7
17,O=C(COC(=O)c1c(F)cccc1Cl)NC1CCCC1,10.2
18,Cc1ccc(-c2csc(N3CCN(CCCn4c(-c5ccncc5)nc5ccccc54)CC3)n2)cc1,-32.4
19,CCOC(=O)C1(Cc2ccccc2)CCCN(C2CCCC2)C1 (stereo not drawn),-2.87
20,Cn1nnc(NC(=S)NC(=O)c2cc(Cl)ccc2Cl)n1,9.98
21,O=C(NNC1=C(C(=O)C(F)(F)F)CCC1)c1ccccc1O,17.7
22,COc1ccccc1C(=O)NCc1n[nH]c(=S)n1Cc1ccccc1,18.6

row,Compound,"hERG current change (%, negative = inhibition) at 10uM [%]"
1,COc1ccc(CCC(=O)NNC(=O)c2ccc(OC)cc2)cc1,17.2
2,CCOC(=O)NNC(=S)Nc1c(C)n(C)n(-c2ccccc2)c1=O,4.89
3,CCN(c1ccc(C)c(C)c1)S(=O)(=O)c1ccc2c(c1)CCN2C(=O)CCC(=O)O,-4.47
4,Cc1ccc(Cl)c(OC(=O)c2nn(C(C)C)c(=O)c3ccccc23)c1,-2.19
5,CCCOc1cccc(C2/C(=C(/O)c3ccc(OC)cc3)C(=O)C(=O)N2CCN(C)C)c1 (stereo not drawn),8.04
6,CC(C)c1cccc(C(C)C)c1NC(=O)Cn1c(=O)cnc2ccccc21,-0.856
7,Cc1cc2n(n1)C(c1cn(-c3ccccc3)nc1C)Nc1c(C)cccc1-2 (stereo not drawn),-5.41
8,CCCCCCn1c(SCCCC)nc2c1c(=O)[nH]c(=O)n2C,1.97
9,COc1ccc([N+](=O)[O-])cc1NC(=O)CCNC(=O)Cn1ccc2ccccc2c1=O,-7.71
10,CSc1ccc(CN(C)C(=O)c2cc3ccccc3o2)cc1,21.2
11,CCc1ccccc1N1C(=O)c2cccc3c(N4CCOCC4)c([N+](=O)[O-])cc(c23)C1=O,-18.3
12,Cc1ccc(-c2nc3ncccc3o2)cc1NC(=O)Cc1ccc(Cl)cc1,17.1
13,Nc1cc(=O)[nH]c(=O)n1CCCc1ccccc1,14
14,CCC(NC(=O)COc1ccc([N+](=O)[O-])cc1)c1ccccc1 (stereo not drawn),-50.7
15,O=[N+]([O-])c1ccc2[nH]c3nc4ccccc4nc3c2c1,20.5
16,COC(=O)c1c(C(=O)OC)c(-c2ccc(OC)cc2)n2c1CS(=O)(=O)C2,0.716
17,Cc1cc(Nc2ccccc2)n(-c2ccc(C(=O)O)cc2)n1,-43.7
18,N#Cc1cc(-c2ccccc2)cn(Cc2c(Cl)cccc2Cl)c1=O,6.22
19,C=CCOC(=O)/C(=C/c1ccco1)NC(=O)/C=C/c1ccccc1,-12.7
20,Cc1cc(C)nc(NC(=O)c2c(-c3c(Cl)cccc3Cl)noc2C)n1,10.3
21,COc1ccc2sc(NC(=O)NC(=O)c3c(Cl)cccc3Cl)nc2c1,2.85
22,CC1(C)Cc2c(cnn2-c2cccc(F)c2)C(NC(=O)c2ccc[n+]([O-])c2)C1 (stereo not drawn),-3.95

row,Compound,"hERG current change (%, negative = inhibition) at 10uM [%]"
1,Nn1c(SCC(=O)Nc2ccc(Oc3ccccc3)cc2)nnc1C1CC1,-18.8
2,COc1ccccc1NS(=O)(=O)c1cccc(NC(=O)Nc2ccc(Cl)cc2)c1,9.17
3,Cc1cc(C)cc(OCC(=O)Nc2ccc(S(=O)(=O)Nc3ccccn3)cc2)c1,8.48
4,Cn1c(=O)cc(OCCCC(=O)Nc2ccc3c(c2)OCCO3)c2ccccc21,6.67
5,CCOC(=O)CCSc1nc(C)c2ccccc2n1,-15.7
6,Cl.O=C(c1ccc(F)cc1)C(CCCCCC(CN1CCOCC1)C(=O)c1ccc(F)cc1)CN1CCOCC1 (stereo not drawn),-86.8
7,COc1ccc(N=Cc2c(O)n(-c3cccc(C)n3)c(=O)c3ccccc23)c(OC)c1,3.83
8,CCN(CC)CCNC(=O)c1nn(-c2ccc(C)cc2)c(=O)c2c1c1ccccc1n2C,-40.7
9,COC(=O)c1cn(NC(=O)Cc2c(F)cccc2Cl)c(=O)c2ccccc12,11.9
10,COc1ccc(-c2cc(C(=O)N3CC(C)CC(C)C3)c3ccccc3n2)cc1 (stereo not drawn),5.7
11,CN1CCN(C(=O)/C(=C/c2cn(S(=O)(=O)N(C)C)c3ccccc23)NC(=O)c2ccccc2F)CC1,1.31
12,O=C(N/N=C/c1c(Cl)[nH]c2ccccc12)c1sc2ccccc2c1Cl,7.49
13,N#CC1=C(N)Oc2ccc3ccc(O)cc3c2C1c1cccnc1 (stereo not drawn),6.2
14,CCOc1ccc(CN2C(=O)c3ccccc3C2=O)cc1C(=O)NC1CC(C)(C)NC(C)(C)C1,-9.59
15,COC(=O)c1cc(NC(=O)C2CC=CCC2C(=O)O)cc(C(=O)OC)c1 (stereo not drawn),12.4
16,CCCCN(C)C(=O)c1ccc(S(=O)(=O)N2CCOCC2)cc1,17.3
17,CCCCCn1c(S(=O)(=O)O)nc2ccccc21,-0.478
18,CNC(=S)Nc1cc(S(=O)(=O)Nc2cc(Cl)ccc2Cl)ccc1N1CCCC1,-12.4
19,COc1ccc(CSc2nc3ccccc3[nH]2)cc1,-5.72
20,O=C(CSc1nncs1)NC(=O)NC1CCCC1,37.6
21,O=C(CN1CCN(S(=O)(=O)N2CCOCC2)CC1)Nc1cc(Cl)ccc1Cl,-55.2
